Assay results reported in PubChem BioAssay AID624417 (National Center for Advancing Translational Sciences (NCATS), 2012).
Values joined by “and” are separate entries in the source; they are usually repeats but may differ in a detail not shown here. Identical values can stand only once. Hit rate of the full screen: of about 410,000 compounds, about 6,400 (1.6%) were called active. The inconclusive results got no clear call from the source; some entries with a clear call stand among them for comparison. Calls come from the whole dose curve; as a rule, active = well fitted inhibition curve with a large enough effect; inconclusive = small, poorly fitted or top-dose-only effect; inactive = no such curve, though single readings can be large or run the other way. Where the call is inconclusive, the potency comes from a doubtful curve fit.
% is set by controls: 0 for no effect and ±100 for the full control effect; potency is the fitted concentration of half-maximal effect; tags give direction and shape of the fitted curve.
Note: nearly all actives have a fitted effect of over 55% in size.

Each compound was assayed against Glucagon-like peptide 1 receptor (Homo sapiens) (UniProt P43220) (assay: qHTS of GLP-1 Receptor Inverse Agonists (Inhibition Mode)). Conditions: HEK293 GLP-1R CRE-luciferase, luminescence, 24 h, GLP-1R form is constitutively active; activity change, negative = inhibition: at 38.3 µM (top of the series) unless noted.
Sequence of UniProt P43220 (P43220 whole entry, looked up): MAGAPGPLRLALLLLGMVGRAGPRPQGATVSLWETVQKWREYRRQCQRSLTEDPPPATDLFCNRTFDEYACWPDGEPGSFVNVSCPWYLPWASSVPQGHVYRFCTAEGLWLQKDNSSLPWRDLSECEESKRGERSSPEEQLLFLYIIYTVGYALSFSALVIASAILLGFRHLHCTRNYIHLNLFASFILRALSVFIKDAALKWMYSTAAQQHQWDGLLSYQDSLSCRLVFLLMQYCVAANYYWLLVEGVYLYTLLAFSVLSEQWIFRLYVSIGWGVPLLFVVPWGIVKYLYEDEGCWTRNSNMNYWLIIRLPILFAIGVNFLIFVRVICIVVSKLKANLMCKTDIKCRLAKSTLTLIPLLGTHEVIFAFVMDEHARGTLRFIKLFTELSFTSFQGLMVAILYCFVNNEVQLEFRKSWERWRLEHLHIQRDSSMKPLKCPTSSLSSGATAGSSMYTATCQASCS
Method in brief: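 Constitutively active GLP-1R drives a cAMP-responsive luciferase in stably transfected HEK293 cells; test compounds are added after overnight (12 h) attachment and left 24 hr, and signal loss in luminescence marks inhibition.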
In the case of `Fc1ccc(Nc2c3c(nc4ccccc24)CCC3)cc1`, the Potency is reported as inconclusive: 12.6 µM [inhibitor, single point] and inconclusive: 17.8 µM [inhibitor, partial curve, poor fit].
In the case of `CN(CC(=O)N1CCc2ccccc2C1)c1ccccc1`, the “activity change, negative = inhibition” value is reported as inactive: -22.8%.
In the case of `COc1ccccc1CNC(=O)c1cc(S(=O)(=O)N2CCN(c3ccccc3)CC2)ccc1Cl`, the Potency is reported as inconclusive: 6.31 µM [inhibitor, partial curve, poor fit].
`CCc1ccc(CN(Cc2ccco2)c2cnc(S(C)(=O)=O)nc2C(=O)Nc2ccccc2Cl)cc1` was tested, and the Potency was inconclusive: 12.6 µM [inhibitor, single point].
For `O=S(=O)(NCc1ccc(Cl)cc1)c1cnc[nH]1`, the Potency was inconclusive: 3.55 µM [inhibitor, full curve, poor fit].
`O=C(Nc1nc2ccc(S(=O)(=O)N3CCCC3)cc2s1)C1CCCCC1` was tested, and the Potency was inconclusive: 5.62 µM [inhibitor, full curve, poor fit].
`O=C(Cc1c(F)cccc1Cl)OCC(=O)N1CCc2ccccc21` was tested, and the Potency was inconclusive: 31.6 µM [inhibitor, single point].
`COc1ccc(OC)c(-c2csc(NC(=O)Cc3ccccc3)n2)c1` was tested, and the Potency was inconclusive: 28.2 µM [inhibitor, single point].
With `COC(=O)CSc1nc2c(c(-c3ccco3)c1C#N)CCCC2` the “activity change, negative = inhibition” value was inactive: -29.4%.
For `COc1ccc(Br)cc1CNC(=O)c1cc2n(n1)CCCN(Cc1ccc(C)cc1)C2=O`, the Potency was inconclusive: 10 µM [inhibitor, single point].
`CNC(=S)N/N=C/c1ccc(-c2ccc(Cl)c([N+](=O)[O-])c2)o1` was tested, and the “activity change, negative = inhibition” value was inactive: 4.55%.
`CN(Cc1nc(Cc2ccccc2F)no1)CC1(N2CCOCC2)CCCCC1` was tested, and the Potency was inconclusive: 12.6 µM [inhibitor, single point].
`CC(C)CC(N)c1csc(Nc2ccc(C(F)(F)F)cn2)n1` (centres undefined) was tested, and the Potency was inconclusive: 10 µM [inhibitor, partial curve, poor fit].
`Nc1c(C(=O)NCc2ccc3c(c2)OCO3)nnn1Cc1ccc(Br)cc1` was tested, and the Potency was inconclusive: 3.55 µM [inhibitor, full curve].
With `CCOc1cc(Br)c(CC(=O)NC2CCCCCC2)cc1OCC` the Potency was inconclusive: 11.2 µM [inhibitor, partial curve, poor fit].
With `CC(C)(C)NC(=O)C[C@H]1C[C@H](C(=O)N2CCOCC2)[C@@]2(CCC3CCCC3)c3[nH]c4ccc(Cl)cc4c3CCN2C1=O` the Potency was inconclusive: 28.2 µM [inhibitor, single point].
With `O=CC(=Cc1ccccc1)c1ccccc1` the Potency was inconclusive: 20 µM [inhibitor, single point].
For `COc1ccccc1C1CCN(Cc2ccc3ccccc3c2)CC1`, the Potency was inconclusive: 12.6 µM [inhibitor, single point].
For `COc1ccc(-c2nc(-c3ccc4c(c3)OCO4)[nH]c2-c2ccc(OC)cc2)cc1`, the Potency was inconclusive: 5.01 µM [inhibitor, full curve, poor fit].
For `O=C(c1cc(-c2ccc(Br)cc2)nc2ccccc12)N1CCN(c2ccccc2O)CC1`, the Potency was active: 2.51 µM.
In the case of `CC(NC(=O)Nc1ccc(Cl)cc1)c1ccccc1` (centres undefined), the Potency is reported as inconclusive: 10 µM [inhibitor, partial curve, poor fit].
With `O=[N+]([O-])c1cc(Cl)ccc1-c1nc(-c2ccccc2)no1` the “activity change, negative = inhibition” value was inactive: 11%.
In the case of `O=S(=O)(c1ccccc1)N1CCN(Cc2cccc(Cl)c2)CC1`, the Potency is reported as inconclusive: 11.2 µM [inhibitor, single point].
In the case of `CCOn1c(=O)c(-c2ccc(C)cc2)[n+]([O-])c2ccccc21`, the “activity change, negative = inhibition” value is reported as inactive: 13.7%.
`O=C(NCc1cccs1)c1ccc(-c2ccc(F)c(F)c2)c2ccoc12` was tested, and the Potency was inconclusive: 11.2 µM [inhibitor, single point].
`COc1cc(/C=C/c2cc(OC(C)=O)c3ccccc3n2)c(OC(C)=O)c([N+](=O)[O-])c1` was tested, and the “activity change, negative = inhibition” value was inactive: 15.5%.
In the case of `CCC(Sc1ncnc2c1c(-c1ccccc1)cn2-c1ccc(OC)cc1)C(=O)OC` (centres undefined), the Potency is reported as inconclusive: 7.08 µM [inhibitor, partial curve, poor fit].
`CCc1ccc2[nH]c(C(=O)Nc3ccc(C)c(F)c3)cc2c1` was tested, and the Potency was inconclusive: 0.501 µM [inhibitor, full curve, poor fit].
For `O=C(c1ccc(N2CCN(C(=O)c3ccc(F)c(F)c3)CC2)cc1)c1cccc(F)c1`, the Potency was inconclusive: 8.91 µM [inhibitor, single point].
For `Cc1cc(C)nc(NC(=O)C(c2ccccc2)c2ccccc2)c1`, the Potency was inconclusive: 11.2 µM [inhibitor, partial curve, poor fit].
In the case of `CC(=O)N1CCOc2ccc(S(=O)(=O)N(C)c3cccc(C)c3)cc21`, the Potency is reported as inconclusive: 10 µM [inhibitor, partial curve, poor fit].
For `CC(C)c1ccc(NS(=O)(=O)c2ccc(Cl)nc2)cc1`, the Potency was inconclusive: 11.2 µM [inhibitor, partial curve].
With `CCN(CC)CCCNC(=O)c1ccc(S(=O)(=O)Nc2ccc(C)c(C)c2)cc1` the Potency was active: 7.94 µM.
In the case of `Cc1ccccc1NC(=O)COc1ccc(Br)cc1CNCCCO`, the Potency is reported as inconclusive: 12.6 µM [inhibitor, single point].
In the case of `COc1cc2cc(CNc3ccc(C)cc3)c(=O)n(CC(=O)Nc3ccc(F)cc3F)c2cc1OC`, the “activity change, negative = inhibition” value is reported as inactive: 12.1%.
For `Cc1ccccc1C(=O)NCCCCc1ccccc1`, the Potency was inconclusive: 28.2 µM [inhibitor, single point].
With `O=S(=O)(Nc1nc2c(s1)CCCC2)c1ccc2ccccc2c1` the Potency was inconclusive: 28.2 µM [inhibitor, single point].
For `CCOP(=O)(c1ccccc1)c1nc(-c2ccccc2C)oc1N1CCCCC1` (centres undefined), the Potency was inconclusive: 8.91 µM [inhibitor, partial curve, poor fit].
In the case of `CCCC(C(=O)n1nc(C)cc1C)C(NS(=O)(=O)c1ccc(C)cc1)c1ccccc1` (centres undefined), the Potency is reported as inconclusive: 10 µM [inhibitor, partial curve, poor fit].
For `COc1cccc(CN(C)C(=O)c2ccc(N3CCCC3)c([N+](=O)[O-])c2)c1`, the Potency was inconclusive: 14.1 µM [inhibitor, single point].
In the case of `Cc1ccc(Cn2nc(C)c(C(=O)NCC(c3cccs3)N3CCOCC3)c2Cl)cc1` (centres undefined), the Potency is reported as inconclusive: 28.2 µM [inhibitor, single point].
`CC(C)Nc1ccc(-c2nc(-c3ccco3)no2)cc1[N+](=O)[O-]` was tested, and the “activity change, negative = inhibition” value was inactive: 6.04%.
`Cc1ccc(/C=N/n2c(-c3ccc(Cl)cc3)n[nH]c2=S)o1` was tested, and the “activity change, negative = inhibition” value was inactive: 6.31%.
In the case of `Cc1ccc(CCNC(=O)CC(C)CC2=NS(=O)(=O)c3ccccc3N2)cc1` (centres undefined), the Potency is reported as inconclusive: 14.1 µM [inhibitor, single point].
In the case of `Cc1ccc(C2c3[nH]c4ccccc4c3CCN2C(=O)c2cccc(C)c2)cc1` (centres undefined), the Potency is reported as inconclusive: 10 µM [inhibitor, partial curve].
With `COc1ccc(Cl)cc1NC(=O)Nc1cc(C)on1` the Potency was inconclusive: 0.891 µM [inhibitor, full curve, poor fit].
In the case of `Cc1nc(C)c(C(=O)N2CCCC(C(=O)c3ccc4ccccc4c3)C2)s1` (centres undefined), the Potency is reported as inconclusive: 28.2 µM [inhibitor, single point].
In the case of `COc1cccc(-c2cc3nc(NCc4cccnc4)n(C)c(=O)c3s2)c1`, the “activity change, negative = inhibition” value is reported as inactive: 3.94%.
For `N#CC1=C(S)N=C(N)C(c2nc(-c3ccccc3)cs2)C12CCCCC2` (centres undefined), the “activity change, negative = inhibition” value was inactive: 26.5%.
For `CCCCC[C@@H]1C=C(C(=O)O)[C@H](c2ccc(OC)c(OC)c2)N1S(=O)(=O)c1ccc(C)cc1`, the “activity change, negative = inhibition” value was inactive: 3.57%.
For `Cc1ccc(/C=N/NC(=O)c2cc(C3CC3)nc3ccccc23)o1`, the Potency was inconclusive: 3.98 µM [inhibitor, partial curve].
For `CN1CCN(c2ccc3sc(-n4ccc5ccccc54)nc3c2)CC1`, the Potency was active: 6.31 µM.
`CCC(C)NC(=O)c1ccccc1NC(=O)CN1C(=O)c2cccc3cccc1c23` (centres undefined) was tested, and the Potency was inconclusive: 28.2 µM [inhibitor, single point].
With `CCOCCCNC(=O)C(c1ccc(C)cc1)N(Cc1ccc2c(c1)OCO2)C(=O)c1ccc(NC(C)=O)cc1` (centres undefined) the “activity change, negative = inhibition” value was inactive: -5.08%.
For `O=C(CC(c1ccccc1)c1ccccc1)Nc1ccc(Cl)cn1`, the Potency was active: 5.01 µM.
In the case of `OC[C@H]1O[C@@H](n2cnc3c(NCc4ccco4)ncnc32)[C@H](O)[C@@H]1O`, the Potency is reported as inconclusive: 5.01 µM [inhibitor, full curve, poor fit].
In the case of `Cc1ccc2nc(N3CCC(C(=O)N4CCN(c5cccc(Cl)c5)CC4)CC3)[nH]c2c1`, the Potency is reported as inconclusive: 11.2 µM [inhibitor, partial curve, poor fit].
With `O=C(Cn1nc(-c2cccs2)ccc1=O)Nc1ccc(Br)cc1` the Potency was inconclusive: 10 µM [inhibitor, single point].
For `Cc1ccc(C)c(NC(=S)NNc2ccc(F)cc2F)c1`, the Potency was inconclusive: 12.6 µM [inhibitor, partial curve, poor fit].
With `c1ccc(Nc2c(-c3c[nH]c4ccccc34)nc3ccccn23)cc1` the Potency was inconclusive: 20 µM [inhibitor, single point].
In the case of `O=C1C(=O)c2c(C(=O)c3ccccc3)coc2-c2ccccc21`, the Potency is reported as inconclusive: 28.2 µM [inhibitor, single point].
For `CCN(CC)c1ncnc2c1ncn2[C@H]1CN(Cc2ccc(-c3ccccc3)cc2)C[C@@H](CO)O1`, the Potency was inconclusive: 22.4 µM [inhibitor, single point].
In the case of `CSc1ccc(C(C(C(=O)c2cccs2)N2CCOCC2)N2CCOCC2)cc1` (centres undefined), the Potency is reported as inconclusive: 5.01 µM [inhibitor, full curve, poor fit].
`Cc1onc(-c2ccccc2Cl)c1C(O)c1ccc(F)cc1` (centres undefined) was tested, and the activity change, negative = inhibition was inconclusive: -52.5% [inhibitor].
